Results are given in words; binding and its absence hold for the method and conditions named. In cells and extracts the contact can be indirect. Some binding calls cover weakened binding; strength is not graded here. For some assays here: Where a sequence is shown, tags or fusion partners need not be part of it.
How the values were obtained:
[1] = molecular target: Flag-tagged full-length CHD7 (human) (UniProt Q9P2D1); experiment: co-IP; M2 beads; nucleic acids-free (Benzonase-treated) nuclear extracts from HEK293T cells overexpressing Flag-tagged full-length CHD7 or mock-transfected; washes with IP buffer containing 200 mM NaCl; western blot
[2] = molecular target: T1, Flag-tagged truncated CHD7, N-terminal part (1-786 aa) (human) (UniProt Q9P2D1); experiment: co-IP; cell lysates from HEK293T cells transfected with Flag-tagged truncated CHD7 constructs, precipitated with M2 beads; western blot
T1 sequence: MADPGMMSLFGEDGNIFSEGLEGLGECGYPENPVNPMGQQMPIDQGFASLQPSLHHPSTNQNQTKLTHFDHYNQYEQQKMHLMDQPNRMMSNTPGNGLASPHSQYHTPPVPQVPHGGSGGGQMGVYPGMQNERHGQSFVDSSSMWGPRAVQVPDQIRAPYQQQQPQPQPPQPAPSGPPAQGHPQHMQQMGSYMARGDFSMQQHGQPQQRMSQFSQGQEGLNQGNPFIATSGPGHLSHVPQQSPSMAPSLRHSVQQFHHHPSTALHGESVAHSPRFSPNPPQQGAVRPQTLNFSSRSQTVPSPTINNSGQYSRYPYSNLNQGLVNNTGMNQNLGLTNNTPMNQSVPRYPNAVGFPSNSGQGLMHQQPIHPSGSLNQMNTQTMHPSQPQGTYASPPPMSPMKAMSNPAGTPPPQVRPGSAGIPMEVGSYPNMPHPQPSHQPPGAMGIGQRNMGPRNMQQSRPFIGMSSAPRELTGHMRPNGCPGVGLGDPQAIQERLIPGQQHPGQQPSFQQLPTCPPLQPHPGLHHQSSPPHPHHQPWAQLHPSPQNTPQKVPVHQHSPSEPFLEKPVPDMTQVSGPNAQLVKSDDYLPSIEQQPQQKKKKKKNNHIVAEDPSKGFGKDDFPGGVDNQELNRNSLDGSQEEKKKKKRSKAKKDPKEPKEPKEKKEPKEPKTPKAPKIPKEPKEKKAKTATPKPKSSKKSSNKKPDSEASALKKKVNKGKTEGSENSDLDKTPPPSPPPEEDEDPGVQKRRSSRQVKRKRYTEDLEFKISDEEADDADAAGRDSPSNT

The chains behind the UniProt entries cited, without tags or fusion partners.
UniProt Q02880: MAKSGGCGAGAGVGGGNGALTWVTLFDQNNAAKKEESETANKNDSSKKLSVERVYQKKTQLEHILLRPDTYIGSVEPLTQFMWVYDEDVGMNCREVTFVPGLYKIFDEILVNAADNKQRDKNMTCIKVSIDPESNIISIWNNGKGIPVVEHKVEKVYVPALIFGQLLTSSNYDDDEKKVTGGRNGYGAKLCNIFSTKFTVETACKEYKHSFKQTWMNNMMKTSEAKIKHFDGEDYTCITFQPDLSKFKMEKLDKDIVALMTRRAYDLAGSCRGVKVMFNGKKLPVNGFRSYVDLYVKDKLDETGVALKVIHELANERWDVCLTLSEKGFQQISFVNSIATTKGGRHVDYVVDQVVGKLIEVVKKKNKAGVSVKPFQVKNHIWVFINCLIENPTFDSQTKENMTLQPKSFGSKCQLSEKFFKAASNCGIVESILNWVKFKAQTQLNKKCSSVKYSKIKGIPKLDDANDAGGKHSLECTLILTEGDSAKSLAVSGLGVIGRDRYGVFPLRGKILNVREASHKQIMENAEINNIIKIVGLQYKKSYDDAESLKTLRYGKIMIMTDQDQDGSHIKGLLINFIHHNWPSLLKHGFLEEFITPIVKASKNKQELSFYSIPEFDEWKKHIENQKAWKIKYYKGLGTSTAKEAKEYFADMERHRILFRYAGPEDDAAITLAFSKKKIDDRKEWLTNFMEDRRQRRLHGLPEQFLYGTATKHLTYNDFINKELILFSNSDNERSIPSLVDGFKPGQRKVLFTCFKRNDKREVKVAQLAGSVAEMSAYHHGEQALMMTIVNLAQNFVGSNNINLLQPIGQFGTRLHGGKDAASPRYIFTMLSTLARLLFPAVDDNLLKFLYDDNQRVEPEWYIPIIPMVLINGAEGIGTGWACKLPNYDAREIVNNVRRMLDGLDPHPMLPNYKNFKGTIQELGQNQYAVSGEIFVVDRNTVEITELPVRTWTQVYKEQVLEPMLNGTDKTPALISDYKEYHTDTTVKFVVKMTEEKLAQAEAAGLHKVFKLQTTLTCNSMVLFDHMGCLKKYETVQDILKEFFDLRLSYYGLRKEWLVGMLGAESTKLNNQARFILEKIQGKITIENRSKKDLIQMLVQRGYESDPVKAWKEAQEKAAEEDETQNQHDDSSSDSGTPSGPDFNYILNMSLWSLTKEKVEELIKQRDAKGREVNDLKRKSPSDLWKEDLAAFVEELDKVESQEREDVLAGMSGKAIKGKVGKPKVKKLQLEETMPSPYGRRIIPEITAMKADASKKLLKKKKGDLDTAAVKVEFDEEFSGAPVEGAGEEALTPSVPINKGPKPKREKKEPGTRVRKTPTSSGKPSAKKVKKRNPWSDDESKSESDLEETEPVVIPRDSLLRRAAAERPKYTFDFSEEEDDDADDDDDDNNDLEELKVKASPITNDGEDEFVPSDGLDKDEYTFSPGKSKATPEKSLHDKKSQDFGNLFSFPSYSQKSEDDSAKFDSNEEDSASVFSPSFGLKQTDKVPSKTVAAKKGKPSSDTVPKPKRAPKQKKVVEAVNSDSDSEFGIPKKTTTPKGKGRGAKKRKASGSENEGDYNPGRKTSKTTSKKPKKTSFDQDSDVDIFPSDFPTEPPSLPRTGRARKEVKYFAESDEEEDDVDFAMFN
UniProt P12956: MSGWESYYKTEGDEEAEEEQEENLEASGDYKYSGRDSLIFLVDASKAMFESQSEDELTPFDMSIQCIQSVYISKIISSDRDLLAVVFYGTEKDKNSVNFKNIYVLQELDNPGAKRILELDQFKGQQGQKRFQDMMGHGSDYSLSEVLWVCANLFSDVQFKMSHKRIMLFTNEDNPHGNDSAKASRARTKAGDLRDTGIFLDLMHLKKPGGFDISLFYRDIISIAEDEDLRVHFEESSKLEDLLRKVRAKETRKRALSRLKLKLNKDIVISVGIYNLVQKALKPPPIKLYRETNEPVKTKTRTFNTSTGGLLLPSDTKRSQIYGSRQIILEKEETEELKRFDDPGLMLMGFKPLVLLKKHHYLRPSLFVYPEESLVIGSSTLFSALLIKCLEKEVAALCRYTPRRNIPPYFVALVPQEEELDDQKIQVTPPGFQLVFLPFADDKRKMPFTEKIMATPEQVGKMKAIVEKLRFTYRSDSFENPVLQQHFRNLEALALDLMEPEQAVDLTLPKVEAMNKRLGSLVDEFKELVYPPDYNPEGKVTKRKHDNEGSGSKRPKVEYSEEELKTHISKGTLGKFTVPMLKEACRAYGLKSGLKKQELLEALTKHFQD
UniProt P09874: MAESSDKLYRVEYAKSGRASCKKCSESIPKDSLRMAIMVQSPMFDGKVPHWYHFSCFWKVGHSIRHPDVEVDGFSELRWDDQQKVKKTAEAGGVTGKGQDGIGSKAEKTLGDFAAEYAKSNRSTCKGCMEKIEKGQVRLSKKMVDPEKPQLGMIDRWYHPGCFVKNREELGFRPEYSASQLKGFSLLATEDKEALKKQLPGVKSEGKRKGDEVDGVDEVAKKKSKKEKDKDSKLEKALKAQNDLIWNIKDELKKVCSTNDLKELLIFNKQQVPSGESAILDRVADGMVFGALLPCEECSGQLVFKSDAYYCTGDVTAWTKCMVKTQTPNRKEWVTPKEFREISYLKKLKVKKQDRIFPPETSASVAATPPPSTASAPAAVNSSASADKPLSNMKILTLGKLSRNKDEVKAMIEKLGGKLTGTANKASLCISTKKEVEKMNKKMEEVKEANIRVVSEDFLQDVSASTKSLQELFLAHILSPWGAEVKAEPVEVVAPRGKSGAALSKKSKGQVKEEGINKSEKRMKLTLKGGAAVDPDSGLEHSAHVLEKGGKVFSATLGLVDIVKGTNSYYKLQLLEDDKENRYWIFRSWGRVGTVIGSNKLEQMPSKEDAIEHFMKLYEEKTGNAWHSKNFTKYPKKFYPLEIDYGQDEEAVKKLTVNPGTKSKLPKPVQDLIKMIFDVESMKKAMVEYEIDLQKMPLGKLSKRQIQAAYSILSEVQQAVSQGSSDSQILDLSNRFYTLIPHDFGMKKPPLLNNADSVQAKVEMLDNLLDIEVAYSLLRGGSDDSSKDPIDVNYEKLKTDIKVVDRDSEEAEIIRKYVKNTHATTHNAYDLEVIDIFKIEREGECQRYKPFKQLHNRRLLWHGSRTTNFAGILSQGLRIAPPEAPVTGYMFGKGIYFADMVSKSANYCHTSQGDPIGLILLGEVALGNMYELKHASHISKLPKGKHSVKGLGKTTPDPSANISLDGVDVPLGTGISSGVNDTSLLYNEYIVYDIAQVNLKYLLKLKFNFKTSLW
UniProt P11387: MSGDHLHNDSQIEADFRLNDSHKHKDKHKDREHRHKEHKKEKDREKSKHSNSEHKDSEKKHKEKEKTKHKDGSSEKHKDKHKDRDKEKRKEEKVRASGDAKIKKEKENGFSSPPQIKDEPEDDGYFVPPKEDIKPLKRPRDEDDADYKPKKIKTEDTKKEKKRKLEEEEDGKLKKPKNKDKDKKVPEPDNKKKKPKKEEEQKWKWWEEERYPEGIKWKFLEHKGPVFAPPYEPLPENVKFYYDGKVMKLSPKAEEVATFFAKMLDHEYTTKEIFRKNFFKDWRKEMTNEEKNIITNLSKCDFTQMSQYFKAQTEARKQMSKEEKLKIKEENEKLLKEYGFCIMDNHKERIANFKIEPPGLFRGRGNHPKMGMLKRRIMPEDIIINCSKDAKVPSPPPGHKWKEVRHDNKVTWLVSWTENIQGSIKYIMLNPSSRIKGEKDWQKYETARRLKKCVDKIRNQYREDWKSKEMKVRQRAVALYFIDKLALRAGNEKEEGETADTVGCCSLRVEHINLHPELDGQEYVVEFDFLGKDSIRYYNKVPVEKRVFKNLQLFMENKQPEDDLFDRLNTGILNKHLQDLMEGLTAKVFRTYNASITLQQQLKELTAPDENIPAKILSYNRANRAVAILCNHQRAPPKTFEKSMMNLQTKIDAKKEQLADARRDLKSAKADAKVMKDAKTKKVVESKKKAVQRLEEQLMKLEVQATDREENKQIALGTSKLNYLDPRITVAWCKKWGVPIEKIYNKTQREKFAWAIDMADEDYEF
UniProt Q9HCK8: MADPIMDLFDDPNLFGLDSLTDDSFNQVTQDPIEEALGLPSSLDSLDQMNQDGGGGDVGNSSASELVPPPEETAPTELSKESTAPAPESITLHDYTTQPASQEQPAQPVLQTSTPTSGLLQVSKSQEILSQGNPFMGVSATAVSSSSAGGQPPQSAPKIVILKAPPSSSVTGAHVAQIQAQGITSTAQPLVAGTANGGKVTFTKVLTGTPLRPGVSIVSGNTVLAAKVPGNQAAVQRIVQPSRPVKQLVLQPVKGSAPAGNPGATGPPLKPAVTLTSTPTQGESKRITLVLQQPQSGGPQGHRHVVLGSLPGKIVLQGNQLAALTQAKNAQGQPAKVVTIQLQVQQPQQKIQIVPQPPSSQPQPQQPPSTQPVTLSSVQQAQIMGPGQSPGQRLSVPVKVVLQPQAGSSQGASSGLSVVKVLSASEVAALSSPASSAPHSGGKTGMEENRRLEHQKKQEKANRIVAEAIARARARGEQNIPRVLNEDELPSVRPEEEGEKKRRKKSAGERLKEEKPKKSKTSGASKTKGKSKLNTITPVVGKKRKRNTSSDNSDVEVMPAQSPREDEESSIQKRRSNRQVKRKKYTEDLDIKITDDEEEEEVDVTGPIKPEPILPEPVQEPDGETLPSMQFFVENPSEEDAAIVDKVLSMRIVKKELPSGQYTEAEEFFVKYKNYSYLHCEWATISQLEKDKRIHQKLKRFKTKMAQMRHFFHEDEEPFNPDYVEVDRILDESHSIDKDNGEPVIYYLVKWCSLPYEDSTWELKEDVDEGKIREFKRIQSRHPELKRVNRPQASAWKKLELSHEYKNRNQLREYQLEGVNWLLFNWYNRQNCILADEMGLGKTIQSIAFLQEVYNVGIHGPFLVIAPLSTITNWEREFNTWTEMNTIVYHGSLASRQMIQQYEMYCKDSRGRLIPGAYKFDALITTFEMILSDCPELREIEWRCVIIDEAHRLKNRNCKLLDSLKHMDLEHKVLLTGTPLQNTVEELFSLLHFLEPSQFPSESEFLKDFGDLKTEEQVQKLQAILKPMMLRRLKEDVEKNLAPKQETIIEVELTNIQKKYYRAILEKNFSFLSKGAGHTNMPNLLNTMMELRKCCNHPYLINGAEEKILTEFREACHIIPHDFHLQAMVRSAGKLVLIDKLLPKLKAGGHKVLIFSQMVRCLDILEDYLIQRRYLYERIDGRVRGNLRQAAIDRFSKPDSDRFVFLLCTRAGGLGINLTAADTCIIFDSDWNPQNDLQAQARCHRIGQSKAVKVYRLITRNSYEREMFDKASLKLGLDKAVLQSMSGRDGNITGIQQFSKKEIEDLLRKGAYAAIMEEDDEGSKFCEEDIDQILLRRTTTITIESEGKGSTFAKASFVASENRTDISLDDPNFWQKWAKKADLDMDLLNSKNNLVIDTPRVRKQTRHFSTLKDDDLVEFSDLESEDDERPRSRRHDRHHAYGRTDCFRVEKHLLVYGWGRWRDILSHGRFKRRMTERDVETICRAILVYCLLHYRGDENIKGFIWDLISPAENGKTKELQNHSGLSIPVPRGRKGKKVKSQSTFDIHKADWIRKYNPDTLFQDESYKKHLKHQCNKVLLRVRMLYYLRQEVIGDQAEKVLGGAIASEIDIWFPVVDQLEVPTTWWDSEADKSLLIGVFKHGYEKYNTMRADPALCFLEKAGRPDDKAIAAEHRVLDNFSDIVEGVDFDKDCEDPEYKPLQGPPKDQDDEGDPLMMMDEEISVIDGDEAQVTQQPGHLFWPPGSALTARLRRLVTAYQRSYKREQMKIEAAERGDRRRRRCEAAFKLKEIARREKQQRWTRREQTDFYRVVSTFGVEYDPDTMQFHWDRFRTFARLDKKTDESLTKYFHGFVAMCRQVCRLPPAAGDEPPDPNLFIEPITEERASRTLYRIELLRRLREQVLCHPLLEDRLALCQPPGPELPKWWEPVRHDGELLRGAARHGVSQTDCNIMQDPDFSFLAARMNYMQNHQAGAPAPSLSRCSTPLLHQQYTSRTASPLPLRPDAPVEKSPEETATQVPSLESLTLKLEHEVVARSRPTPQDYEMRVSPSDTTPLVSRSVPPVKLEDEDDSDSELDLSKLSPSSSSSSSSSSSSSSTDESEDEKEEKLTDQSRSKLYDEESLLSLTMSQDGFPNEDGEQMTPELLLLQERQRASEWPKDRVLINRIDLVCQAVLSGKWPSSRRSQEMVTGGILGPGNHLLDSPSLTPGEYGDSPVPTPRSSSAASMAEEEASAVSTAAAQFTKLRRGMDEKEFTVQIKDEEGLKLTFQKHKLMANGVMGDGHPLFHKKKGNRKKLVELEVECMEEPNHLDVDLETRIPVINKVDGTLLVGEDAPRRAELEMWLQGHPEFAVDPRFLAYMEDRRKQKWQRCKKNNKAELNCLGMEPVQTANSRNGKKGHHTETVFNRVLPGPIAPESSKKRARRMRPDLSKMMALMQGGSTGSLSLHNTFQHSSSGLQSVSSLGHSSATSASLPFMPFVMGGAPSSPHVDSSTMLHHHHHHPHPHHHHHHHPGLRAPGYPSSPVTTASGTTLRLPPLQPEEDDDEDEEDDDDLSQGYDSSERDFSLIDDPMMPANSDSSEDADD

[3] = molecular target: TOP2B (DNA topoisomerase IIb), endogenous in HEK293T (human (endogenous in HEK293T)) (UniProt Q02880); experiment: co-IP; endogenous proteins, HEK293T cell lysates immunoprecipitated with an antibody against Top2b; co-precipitated Chd7 by western blot

Substance | binding [1] | binding [2] | binding [3]
BRG1, endogenous in HEK293T (from UniProt P51532 1-1647) | binds |  | 
KU70, endogenous in HEK293T (from UniProt P12956 1-609) |  | no binding | 
PARP1, endogenous in HEK293T (from UniProt P09874 1-1014) (enzyme) | binds |  | 
endogenous CHD7 (HEK293T) (from UniProt Q9P2D1 1-2997) |  |  | binds

The next lines start with the values.

binding [1] | binding [2] | binding [3] | Substance
binds |  |  | TOP1, endogenous in HEK293T (from UniProt P11387 1-765) (enzyme)
binds |  |  | CHD8, endogenous in HEK293T (from UniProt Q9HCK8 1-2581)
binds | binds |  | TOP2B (DNA topoisomerase IIb), endogenous in HEK293T (from UniProt Q02880 1-1626) (enzyme)

— article PMC5364396
